From PMC4336329 (PLoS ONE, 2015)
The campaign covered roughly 310,000 compounds. About 14,000 (4.5%) showed an effect of 50% or more. The effect is printed as a negative number. The list shows a part of the results.

Target: human ether-à-go-go-related gene (hERG) potassium channel (human, UniProt Q12809)
Test: primary screen, population patch clamp on CHO cells stably expressing hERG
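Also: peak tail current of the secondary pulse compared with the same well before compound.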

Chain of human ether-à-go-go-related gene (hERG) potassium channel (Q12809 whole entry, looked up): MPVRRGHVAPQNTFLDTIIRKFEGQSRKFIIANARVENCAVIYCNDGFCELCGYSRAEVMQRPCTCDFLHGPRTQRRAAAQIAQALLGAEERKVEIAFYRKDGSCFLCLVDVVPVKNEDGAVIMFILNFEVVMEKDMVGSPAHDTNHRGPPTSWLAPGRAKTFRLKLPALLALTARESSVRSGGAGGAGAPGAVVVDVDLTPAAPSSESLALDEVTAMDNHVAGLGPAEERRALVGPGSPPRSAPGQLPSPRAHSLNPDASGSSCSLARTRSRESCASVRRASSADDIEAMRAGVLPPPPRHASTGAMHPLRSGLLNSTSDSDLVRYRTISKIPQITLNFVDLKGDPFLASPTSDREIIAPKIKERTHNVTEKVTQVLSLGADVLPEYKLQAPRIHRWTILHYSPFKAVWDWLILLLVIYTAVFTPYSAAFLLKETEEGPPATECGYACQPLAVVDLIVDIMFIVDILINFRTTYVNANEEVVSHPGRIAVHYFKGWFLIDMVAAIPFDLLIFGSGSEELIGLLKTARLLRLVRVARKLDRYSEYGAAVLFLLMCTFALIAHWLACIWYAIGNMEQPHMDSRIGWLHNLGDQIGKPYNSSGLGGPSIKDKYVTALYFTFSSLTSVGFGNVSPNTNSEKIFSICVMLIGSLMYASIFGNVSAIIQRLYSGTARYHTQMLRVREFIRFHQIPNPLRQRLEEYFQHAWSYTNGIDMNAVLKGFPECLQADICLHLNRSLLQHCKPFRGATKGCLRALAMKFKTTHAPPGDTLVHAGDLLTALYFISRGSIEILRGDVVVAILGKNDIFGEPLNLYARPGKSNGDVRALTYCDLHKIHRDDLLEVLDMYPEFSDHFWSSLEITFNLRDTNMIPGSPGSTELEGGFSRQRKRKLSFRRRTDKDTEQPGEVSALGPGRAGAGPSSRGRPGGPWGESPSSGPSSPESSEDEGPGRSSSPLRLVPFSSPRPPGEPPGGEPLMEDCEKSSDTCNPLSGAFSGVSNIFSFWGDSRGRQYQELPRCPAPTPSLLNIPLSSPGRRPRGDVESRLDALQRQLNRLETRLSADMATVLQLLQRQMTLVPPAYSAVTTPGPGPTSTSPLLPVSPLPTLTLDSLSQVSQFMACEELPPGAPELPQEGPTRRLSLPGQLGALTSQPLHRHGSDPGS

SMILES | hERG current change (%, negative = inhibition) at 10uM [%]
C/C(=N\NC(=O)CCCNc1ccccc1)c1ccncc1 | 16.8
Clc1ccccc1C1Nc2cccc3cccc(c23)N1 | 1.64
C[C@H](NC(=O)c1nc[nH]c1C(=O)NCC(=O)OC(C)(C)C)C(=O)OCc1ccccc1 | -24.1
COc1cccc(CNC(=O)N2CCN(c3ccccc3Cl)CC2)c1 | -28
C=CCNC(=O)c1snnc1-c1ccccc1 | -0.284
CCOC(=O)CSC1=C(C#N)C(c2ccc(OC)cc2)C2=C(CC(C)(C)CC2=O)N1 (stereo not shown) | -25.8
COc1cccc(CNC(=O)CSc2nnc3c(n2)[nH]c2ccc(C)cc23)c1 | -6.09
Cc1ccccc1Nc1nc(-c2sc(NC(=O)c3ccco3)nc2C)cs1 | 23.6
O=C(c1ccco1)N1c2ccccc2Sc2ccccc21 | -0.792
Cc1ccc(C(Sc2ccccc2)C(Cn2cncn2)C(=O)c2ccccc2)cc1 (stereo not shown) | 12.8
COc1ccc(C(=O)NCC(=O)OCC(=O)N2CCCc3ccccc32)cc1 | 19.9
COc1ccc(-n2cnnc2SCC(=O)Nc2ccc(N3CCOCC3)cc2)cc1 | -10.1
C/C=C/c1ccc(OCCCN2C(=O)NC(C)(C)C2=O)c(OC)c1 | 9.48
N#C/C(=C\C=C\c1ccccc1[N+](=O)[O-])C(=O)NCc1ccccc1 | -26.1
COCCn1c(SCC(=O)Nc2ccc3c(c2)OCCO3)nnc1-c1c[nH]c2ccccc12 | 5.61
CCOC(=O)[C@H](CCc1ccccc1)N[C@@H](C)C(=O)N1Cc2ccccc2C[C@H]1C(=O)O.Cl | 7.97
NC(=O)c1cc(-c2ccccc2)sc1NC(=O)Cc1ccc(S(=O)(=O)N2CCOCC2)s1 | 12.9
O=C(Nc1ccc(-c2nc3ccccc3o2)cc1)c1cccnc1 | -3.53
CCN1C[C@]2(CO)CC[C@H](OC)[C@@]34C5C[C@H]6[C@H](OC)C5[C@](O)(C[C@H]6OC)[C@@](O)(C(OC)C23)[C@@H]14 (stereo partly shown) | 18
COc1ccc(-n2nc(C(=O)NCC(=O)N3CCCCCC3)c3ccccc3c2=O)c(OC)c1 | 4.26
O=C(OCCN1C(=O)c2ccccc2C1=O)c1cccs1 | -6.85
Cc1ccc(-c2cc(NC(=O)CSc3n[nH]c(N)n3)n(-c3ccccc3)n2)cc1 | -10.3
CCN(CC)CCCn1c2c(c(SCC(=O)Nc3ccccc3Cl)nc1=O)CCC2 | -55.4
CS(=O)(=O)N1CCN(C(=O)c2ccncc2)CC1 | 4.75
CCOc1nc(Oc2cccc(C(=O)O)c2)nc(Oc2cccc(C(=O)O)c2)n1 | 11.1
CC(=O)Nc1cc2nn(-c3ccccc3)nc2cc1Cl | 10.6
Clc1ccc(C2CC(c3ccco3)n3ncnc3N2)cc1Cl (stereo not shown) | -21.5
CCc1c(C)nc2ncnn2c1N1CCC(C(=O)NCc2ccc3c(c2)OCO3)CC1 | -68.7

SMILES | hERG current change (%, negative = inhibition) at 10uM [%]
O=C1CC(N2CCN(c3ccc(F)cc3)CC2)C(=O)N1c1ccccc1 (stereo not shown) | -9.91
Cc1cc(=O)[nH]c(SCC(=O)Nc2ccccc2C)n1 | 30.9
COC(=O)c1ccccc1NC(=O)CSc1n[nH]c(C)n1 | -0.684
O=C(O)CC1(CC(=O)NCc2cccc(Cl)c2)CCCCC1 | 13.1
Cc1cn(C2OC(COC(=O)c3ccccc3)C(OC(=O)c3ccccc3)C2OC(=O)c2ccccc2)c(=O)[nH]c1=O (stereo not shown) | 7.67
COc1ccc(OC)c(-c2cc(C(=O)Nc3sc4c(c3C#N)CCC(C)C4)c3ccccc3n2)c1 (stereo not shown) | 0.308
Cc1cc(NCC2CCCCC2)nc2ccccc12 | -42.7
N#Cc1c(Cl)nsc1NN | 27.6
CCN(CC)S(=O)(=O)c1ccc2oc(SCc3ccc(F)cc3)nc2c1 | -12.5
CCOc1ccc(NC(=O)CN(c2cccc(C(F)(F)F)c2)S(C)(=O)=O)cc1 | -12.8
CC(C)Cc1nnc(NC(=O)CCc2c[nH]c3ccccc23)s1 | 3.86
CCOC(=O)C1=C(N)N2C(=O)C(C)SC2=C(C(=O)OCC)C1c1ccc(O)cc1 (stereo not shown) | -4.21
Cc1ccc(-c2nc(-c3cccnc3)sc2CC(=O)Nc2ccc(C)c(Cl)c2)cc1 | 14.2
O=C(Nc1ccc(NC(=O)c2cccs2)cc1)c1ccc2ccccc2c1 | 25.3
Cc1nc2scc(-c3ccc(Cl)cc3)c2c(=O)o1 | 2.99
Cc1ccc(S(=O)(=O)N2CCn3cccc3C2C)cc1 (stereo not shown) | -22.7
CCCCn1c(N)c(N(CCOC)C(=O)c2sc3ccccc3c2Cl)c(=O)[nH]c1=O | -11.1
CSC1=N/C(=C\c2ccc(Br)o2)C(=O)S1 | 4.63
Cc1cc(C)cc(NC(=O)c2ccc(S(=O)(=O)C(F)F)cc2)c1 | -29.7
CC(OC(=O)c1ccccc1)C(=O)NCCC1=CCCCC1 (stereo not shown) | -2.42
Cc1cc(=O)oc2cc(OCC(=O)NCc3ccccn3)ccc12 | 9.34
CC12CCC(=O)N1C(C(=O)Nc1nnc(SCc3ccccc3F)s1)CS2 (stereo not shown) | -26.2
O=C1CCc2cc(S(=O)(=O)NCCC(=O)NC3CCCCC3)ccc2N1 | 5.97
CCOC(=O)/C(=C\c1ccc(OC)c(OC)c1)C(=O)c1cccnc1 | 5.94
CNC(=S)N1CCN(CCNC2=CC(=O)CC(C)(C)C2)CC1 | 21.3
O=c1[nH]c2ccc(NS(=O)(=O)c3ccc(F)c(Cl)c3)cc2[nH]1 | 9.27
CCCOc1ccc(OC(=O)Cc2ccc(OC)c(S(=O)(=O)N3CCOCC3)c2)cc1 | -21.7
